Measurements: PubChem BioAssay (NCATS)
This list was built around the results that the source calls inconclusive (neither active nor inactive); the mix of calls is not that of the screen. Where the call is inconclusive, the potency comes from a doubtful curve fit. Activity calls are given as the source filed them. The call rests on the fitted dose curve; in most records, active means well fitted inhibition curve with a large enough effect; inconclusive means small, poorly fitted or top-dose-only effect, or effect the other way; inactive means flat fitted curve, though single readings scatter.

target: D(1A) dopamine receptor (Homo sapiens) (UniProt P21728); test: HTS Assay for Allosteric Agonists of the Human D1 Dopamine Receptor: Primary Screen for Antagonists (AID 488983); conditions: D1 receptor cell assay, antagonist mode, qHTS titration; series mostly up to 41.8 µM; further: nearly all actives have a fitted effect of over 65% in size
From the text: Dopamine receptors (DARs) are involved in the etiology and/or therapy of a number of neuropsychiatric and endocrine disorders. For instance, all receptor-based antiparkinsonian drugs work via stimulating the […] DAR subtype whereas all FDA-approved antipsychotic agents are antagonists of this receptor. […] There are three different types of allosteric modulators that we are seeking, two of which will stimulate or augment receptor signaling, allosteric agonists and potentiators, while the third, allosteric antagonists, will attenuate receptor signaling. The present primary screening assay measures compound agonism by tracking calcium flux in a […], inducible Hek293 Trex D1 cell line.
Freshly passaged cells are plated in 1536 well black, clear bottom plates at a density of 4000 cells/well in 3 ul of complete media containing 1x tetracycline inducer. After an overnight incubation at 30 C in 5% CO2, cells are loaded with 2 ul of the no wash Calcium Assay Kit (ABD Bioquest) and incubated at room temperature for 30 to 90 minutes. A 10 cycle (1 second/cycle) baseline measurement is taken and then the FDSS online 1536 pintool delivers 23 nl of compound library (as well as dopamine controls) to the plate. The plate is measured for kinetically at 1 cycle/sec for 180 seconds and is considered to be the agonist portion of the assay (eg, compounds which activate a positive calcium response during this portion are flagged as potential agonists). Following the 180 second read, 1 ul of an EC80 of dopamine is delivered by an onboard pipette head. Measurements are taken kinetically for an additional 180 seconds.
Potency means the concentration at half of the fitted maximal effect; tags describe the fitted curve by direction and shape.

UniProt P21728, sequence (P21728 whole entry, looked up): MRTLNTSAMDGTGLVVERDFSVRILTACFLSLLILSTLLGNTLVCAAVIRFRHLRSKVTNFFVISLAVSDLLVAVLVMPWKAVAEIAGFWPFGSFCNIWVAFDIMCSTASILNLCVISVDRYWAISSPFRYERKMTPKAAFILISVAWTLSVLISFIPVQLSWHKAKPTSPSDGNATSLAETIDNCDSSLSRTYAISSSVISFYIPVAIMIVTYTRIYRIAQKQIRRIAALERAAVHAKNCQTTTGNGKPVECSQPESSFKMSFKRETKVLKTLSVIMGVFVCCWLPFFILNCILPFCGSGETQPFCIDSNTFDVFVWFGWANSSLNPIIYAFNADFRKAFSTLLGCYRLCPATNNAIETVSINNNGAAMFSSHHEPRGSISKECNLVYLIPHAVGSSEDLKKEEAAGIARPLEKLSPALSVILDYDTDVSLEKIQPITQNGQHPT

| Compound | Potency |
| --- | --- |
| O=Nc1c(-c2c(O)[nH]c3cc(Br)ccc23)[nH]c2ccccc12 | inconclusive: 2.82 µM [inhibitor, full curve] |
| Cn1ccc2cc3c(cc21)CCN3C(=O)Nc1cccnc1 | inconclusive: 7.08 µM [inhibitor, partial curve] |
| Oc1ccc(C2CNCc3sccc32)cc1O (centres undefined) | active: 0.199 µM |
| CCc1ccc(/C=C2/SC(=S)NC2=O)cc1 | inconclusive: 14.1 µM [inhibitor, single point] |
| O=C1NC(=O)/C(=C/c2ccc(-c3ccc(F)cc3O)o2)S1 | inconclusive: 22.4 µM [inhibitor, single point] |
| CCN(CC)CCNC(=O)c1cc(Cl)c(N)cc1OC | inconclusive: 14.1 µM [inhibitor, partial curve] |
| O=Nc1c(-c2c(O)[nH]c3ccccc23)[nH]c2ccccc12 | inconclusive: 10 µM [inhibitor, partial curve] |
| OC(CN1CCC(Cc2ccc(F)cc2)CC1)c1ccc(Cl)cc1 (centres undefined) | inconclusive: 31.6 µM [activator, single point] |
| NC(=O)C(=O)O | inactive |
| Nc1nc(Cl)nc2c1ncn2[C@@H]1O[C@H](COP(=O)(O)OP(=O)(O)OP(=O)(O)O)[C@@H](O)[C@H]1O | inconclusive: 0.251 µM [inhibitor, full curve] |
| CC(C)NCC(O)c1ccc(O)c(O)c1 (centres undefined) | inactive |
| O=C(Nc1ccc([N+](=O)[O-])cc1Cl)c1cc(Cl)ccc1O | inconclusive: 0.398 µM [inhibitor, full curve] |
| c1ccc(C(NCCNC(c2ccccc2)c2ccccc2)c2ccccc2)cc1 | inconclusive: 11.2 µM [activator, partial curve] |
| CC(C)Cc1ccc([C@H](C)C(=O)O)cc1 | inactive |
| Oc1ccc(O)cc1 | inactive |
| COc1cc2nc(N3CCN(C(=O)C4CCCO4)CC3)nc(N)c2cc1OC (centres undefined) | inconclusive: 15.8 µM [inhibitor, single point] |
| CCN(CC)CCCC(C)Nc1c2ccc(Cl)cc2nc2ccc(OC)cc12 (centres undefined) | inconclusive: 11.2 µM [inhibitor, single point] |
| CCOC(=O)N1CCN(/[N+]([O-])=N/Oc2ccc([N+](=O)[O-])cc2[N+](=O)[O-])CC1 | inconclusive: 11.2 µM [inhibitor, partial curve, poor fit] |
| O=C(Nc1cccc(C(=O)Nc2ccc(S(=O)(=O)O)c3cc(S(=O)(=O)O)cc(S(=O)(=O)O)c23)c1)Nc1cccc(C(=O)Nc2ccc(S(=O)(=O)O)c3cc(S(=O)(=O)O)cc(S(=O)(=O)O)c23)c1 | inconclusive: 31.6 µM [inhibitor, single point] |
